Assay results from the supplement of paper PMC10338343.
± gives the standard deviation. The list shows a part of the results, in another mix than the full data.

Test system: MIWI (PIWIL1) piRISC loaded with piRNA #1 (30 nt)
Experiment: pre-steady-state target cleavage rate (min^-1); MIWI and MILI are mouse PIWI proteins and EfPiwi is from a freshwater sponge; tags in brackets are library labels; higher = faster piRNA-guided slicing of the target
Details: guide: piRNA #1 5'p-UGAGGUAGUAGGUUGUAUAGUAUCCAGAGG; auxiliary factor: 500 nM mouse GTSF1
Method in brief: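 With or without 500 nM GTSF1 partner protein, 1 nM active affinity-purified piRISC carrying one synthetic guide was mixed with 0.1 nM transcribed, DNA-blocked target RNA library in HEPES–potassium acetate buffer at 33 °C for 0–8 or 0–960 min. Uncleaved targets were sequenced and normalised to depth and to weakly complementary targets, three trials were pooled, and k3 was capped at 0.0001 min^-1. The pre-steady-state cleavage rate came from a burst-and-steady-state fit.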

Row | Sequence | pre-steady-state target cleavage rate
1 | GGAGACCUUACUAUACAACGUAGUACCUCA | 0.0931 ± 0.021
2 | GGAGACCUAUGAAUACAACCUUGAACCUCA | < 0.0001
3 | GGAGACCUAACUAUACAACCUACUACCAGA | 0.385 ± 0.062
4 | GGACAGGAUACAAUACAACCUACUACCUCA | 1.59 ± 0.092
5 | CCUCUGGAUACUAUACAACCUACUACCUUCA | 1.88 ± 0.12
6 | GCUGUGGAUACUAUUCAACCUACUACCUCA | 1.74 ± 0.12
7 | GGAGACCUAUGUAUACAAGCUACUAGCUCA | 0.00597 ± 0.003
8 | GGAGACCUAUGAUAUCGAACCUACUACCUCA | < 0.0001
9 | GGAGACGAAACUAUACUACCUACUACCUCA | 0.484 ± 0.041
10 | GGAGACCUAUGUAUACAACCUACAACCUCA | 0.017 ± 0.0037
11 | GGUCUGGAUACUAUACAUGCUACUACCUCA | 0.824 ± 0.05
12 | GGAGACCUAUGUAUACAACCUAGUACCUCA | 0.0423 ± 0.0077
13 | GGAGACCUAUGAAUAAACCUACUACCUCA | < 0.0001
14 | GGAGACCUAUCUUUACAACCUACAACCUCA | 0.0147 ± 0.005
15 | GCUCUGGAUACUAUACUACGUACUACCUCA | 0.608 ± 0.054
16 | GGACUGGAUCCUAUACAACCUACUACCUCA | 1.87 ± 0.19
17 | GGAGACCUUACAUUACAACCUACUACCUCA | 0.0567 ± 0.0099
18 | GGUCUGGAUACUAUACAACCAACAACCUCA | 0.0418 ± 0.0076
19 | GGAGACCUUACUAUAGAACCUACUACCUCA | 0.815 ± 0.064
20 | GGAGAGGAUACUAUACUAGCUACUACCUCA | 0.309 ± 0.031

Row | Sequence | pre-steady-state target cleavage rate
21 | CCUCUGGAUACUAUACAUGCUACUACCUCA | 1.14 ± 0.068
22 | GGAGACCUAUGAUAUGUUGCUUCUACCUGA | < 0.0001
23 | GGAGAGGAUACUGAUACAACCUACUACCUCA | 1.3 ± 0.076
24 | GGAGACCUAUCUAUACAACCUACAACCACA | 0.115 ± 0.019
25 | GGAGAGGAUACUUUACAACCUUCUACCUCA | 0.485 ± 0.024
26 | GGAGACCUAUCUAUAGAACCUACAACCUCA | 0.012 ± 0.0032
27 | CCUCUGGACUACUAUACAACCUACUACCUCA | 1.52 ± 0.11
28 | GGAGACCUAACUAUAACAACCUACUACCUCA | 0.25 ± 0.029
29 | GGUCUGGAUACUAAACAUCCUACUACCUCA | 1.4 ± 0.086
30 | GGAGAGGAUUCUAUACAACCUACUACCUCA | 1.7 ± 0.099
31 | GGACUGGAUACUAUUCUACCUACUACCUCA | 1.04 ± 0.11
32 | GGAGUGGAUGACUAUACAACCUACUACCUCA | 1.3 ± 0.13
33 | GGUCUCGAUACUAAACAACCUACUACCUCA | 1.68 ± 0.12
34 | GGUCUGGAUUCUAAACAACCUACUACCUCA | 1.23 ± 0.071
35 | GGUCUGGAUACUAUUCAUCCUACUACCUCA | 1.4 ± 0.093
36 | GCUCUGGAUUCAAUACAACCUACUACCUCA | 0.42 ± 0.073
37 | CCUCUGGAUACUAUACAACCUACUACCAUCA | 1.66 ± 0.087
38 | GGAGACGAUACUAUACAACCUACUAUCCUCA | 0.963 ± 0.053
39 | GGAGUGGAUACUAUACAGCCUACUACCUCA | 0.633 ± 0.027
40 | GGUCUGGAUACUAUACAACCUACCACCUCA | 0.554 ± 0.06
